Inhibition data for 21 compounds are collected here from ChEMBL document CHEMBL5606460, “ASAP - DENV-2 NS2B-NS3 protease fluorescence single point” (2024).

About 110 (5.5%) of roughly 2,000 compounds showed an effect of 50% or more. The list shows a part of the results.

This assay addresses Genome polyprotein (dengue virus type 2) (UniProt P29990).
The mark [1] stands for this setting: Thailand/16681/1984, Concentration 25.0 uM, Number of replicates 1.0.

What is called inhibition is the drop in the measured response relative to a control, in per cent. Regarding `Cc1cn[nH]c1CNC(=O)[C@]1(c2ccc(F)cc2)CCCNC1`, the inhibition (Thailand/16681/1984, Concentration 49.5 uM, Number of replicates 2.0, Standard deviation 0.2704269505409949 %) is -0.869%; the inhibition (Thailand/16681/1984, Concentration 99.01 uM, Number of replicates 2.0, Standard deviation 0.4991246013992932 %) was -1.21%; the inhibition (Thailand/16681/1984, Concentration 198.0 uM, Number of replicates 2.0, Standard deviation 1.3309990354074284 %) is -0.684%. Consider `COC[C@@H](C)CN1CC[C@H](c2c[nH]c3ccccc23)C1`, for which the inhibition (Thailand/16681/1984, Concentration 49.5 uM, Number of replicates 2.0, Standard deviation 0.08616808327890092 %) was found to be 0.241%; the inhibition (Thailand/16681/1984, Concentration 99.01 uM, Number of replicates 2.0, Standard deviation 0.5148408240342175 %) stood at 1.15%; the inhibition (Thailand/16681/1984, Concentration 198.0 uM, Number of replicates 2.0, Standard deviation 0.4481825063942973 %) is 1.88%.

For the compound `O=Cc1ccc(N2CCC(C(=O)N[C@H](c3ccccc3)C(F)(F)F)CC2)cc1`, the inhibition under setting [1] is 13.1%.

Take `O=Cc1ccc(N2CCC(C(=O)NC3CCN(Cc4ccccc4F)CC3)CC2)cc1`: the inhibition under setting [1] was found to be 16.3%. On to `CCCCCC(=O)N[C@H](C(=O)N1CCNCC1)c1ccc(OCc2ccccc2)cc1`, for which the inhibition reads like this: (Thailand/16681/1984, Concentration 49.5 uM, Number of replicates 2.0, Standard deviation 0.4437756319139982 %) 0.147%; (Thailand/16681/1984, Concentration 99.01 uM, Number of replicates 2.0, Standard deviation 0.11965810608291498 %) 0.812%; (Thailand/16681/1984, Concentration 198.0 uM, Number of replicates 2.0, Standard deviation 0.14254932391463687 %) 1.93%.

Take `CC(C)(C)C1CCC(NC(=O)C2CCN(c3ccc(C=O)cc3)CC2)CC1` (stereo unspecified): under setting [1], the inhibition came to 12.1%. Still for that read-out and setting: with `O=Cc1ccc(N2CCC(C(=O)NCc3ccc(Br)cc3)CC2)cc1` the figure was 4.59%. Regarding `CNC(=O)c1cc(Cl)ccc1NS(=O)(=O)c1ccccc1C#N`, the inhibition was 1.55% (Thailand/16681/1984, Concentration 49.5 uM, Number of replicates 2.0, Standard deviation 0.10251032359146967 %); 3.55% (Thailand/16681/1984, Concentration 99.01 uM, Number of replicates 2.0, Standard deviation 0.28156151571484545 %); 6.07% (Thailand/16681/1984, Concentration 198.0 uM, Number of replicates 2.0, Standard deviation 0.7872788535987583 %). Consider `CCN(Cc1cccc(Cl)c1)C(=O)C1CCN(c2ccc(C=O)cc2)CC1`, for which the inhibition under setting [1] worked out at 14.9%. The same measure, in the same setting: with `CN1CCN(C[C@H]2CCCN(C(=O)C3CCN(c4ccc(C=O)cc4)CC3)C2)CC1` the figure was 14.4%; with `O=Cc1ccc(N2CCC(C(=O)NCC(=O)NCC(F)(F)F)CC2)cc1`, 9.52%. Regarding `O=C1CC[C@H](NS(=O)(=O)c2ccc(Oc3ccccc3)cc2)CN1`, the inhibition reads like this: (Thailand/16681/1984, Concentration 49.5 uM, Number of replicates 2.0, Standard deviation 1.369122840787412 %) -5.36%; (Thailand/16681/1984, Concentration 99.01 uM, Number of replicates 2.0, Standard deviation 0.9220307576577886 %) -4.67%; (Thailand/16681/1984, Concentration 198.0 uM, Number of replicates 2.0, Standard deviation 1.7703195346995826 %) -3.62%. For the compound `O=Cc1ccc(N2CCC(C(=O)N3CCC(O)(Cc4ccccn4)CC3)CC2)cc1`, the inhibition under setting [1] amounted to 12.5%. Same read-out and setting: the figure for `O=Cc1ccc(N2CCC(C(=O)Nc3cccc(Br)n3)CC2)cc1` is 92.6%. With `O=Cc1ccc(N2CCC(C(=O)Nc3ccc(I)cn3)CC2)cc1`, the inhibition under setting [1] is 13.3%.

Turning to `COc1cc(C(=O)N[C@@H](C)C(=O)O)nc(N2CCNCC2)n1`, the inhibition by setting is: (Thailand/16681/1984, Concentration 49.5 uM, Number of replicates 2.0, Standard deviation 1.579518897029431 %) -5.46%; (Thailand/16681/1984, Concentration 99.01 uM, Number of replicates 2.0, Standard deviation 2.2566031293225164 %) -5.38%; (Thailand/16681/1984, Concentration 198.0 uM, Number of replicates 2.0, Standard deviation 0.022174131351157523 %) -3.27%. As to `Cn1cc(NC(=O)c2ccccc2C(F)(F)F)c(-c2cncnc2)n1`, the inhibition is -3.01% (Thailand/16681/1984, Concentration 49.5 uM, Number of replicates 2.0, Standard deviation 1.0537470770996704 %); -1.1% (Thailand/16681/1984, Concentration 99.01 uM, Number of replicates 2.0, Standard deviation 0.3950344031913927 %); -2.3% (Thailand/16681/1984, Concentration 198.0 uM, Number of replicates 2.0, Standard deviation 3.4896318048296595 %). As for `COc1ccccc1CN(C(=O)C1CCN(c2ccc(C=O)cc2)CC1)C1CC1`, the inhibition under setting [1] was determined as 13.9%.

Turning to `c1ccc(Oc2cccc(CN3CC[C@H](c4c[nH]c5ccccc45)C3)c2)nc1`, the inhibition turned out to be 1% (Thailand/16681/1984, Concentration 49.5 uM, Number of replicates 2.0, Standard deviation 1.2057589164140337 %); 2.61% (Thailand/16681/1984, Concentration 99.01 uM, Number of replicates 2.0, Standard deviation 1.4007589396292652 %); 1.89% (Thailand/16681/1984, Concentration 198.0 uM, Number of replicates 2.0, Standard deviation 2.062519926502942 %). Regarding `CC(C)(COC(=O)c1cccc(F)c1)NC(=O)c1cc(N)cc(Cl)c1`, the inhibition turned out to be 2.76% (Thailand/16681/1984, Concentration 49.5 uM, Number of replicates 2.0, Standard deviation 2.9102223565882523 %); 4.65% (Thailand/16681/1984, Concentration 99.01 uM, Number of replicates 2.0, Standard deviation 3.4341693865648852 %); 7.39% (Thailand/16681/1984, Concentration 198.0 uM, Number of replicates 2.0, Standard deviation 3.020555050969647 %). For `c1ccc2c([C@H]3CCN(Cc4ccon4)C3)c[nH]c2c1`, the inhibition was -2.85% (Thailand/16681/1984, Concentration 49.5 uM, Number of replicates 2.0, Standard deviation 1.9476178393933903 %); -2.25% (Thailand/16681/1984, Concentration 99.01 uM, Number of replicates 2.0, Standard deviation 2.5164078728535832 %); -1.68% (Thailand/16681/1984, Concentration 198.0 uM, Number of replicates 2.0, Standard deviation 2.4110409873352823 %).
